{
  "source": "PubChem BioAssay AID651820",
  "about": "(National Center for Advancing Translational Sciences (NCATS), 2012)",
  "note": "In all, about 340,000 compounds went through this assay and about 12,000 (3.5%) were called active. The shares of active, inactive and inconclusive entries below differ from those in the screen. The call rests on the fitted dose curve; in most records, active means well fitted inhibition curve with a large enough effect; inconclusive means small, poorly fitted or top-dose-only effect, or another doubt; inactive means no such curve, though single readings can be large or run the other way. Potencies of inconclusive entries are left out as doubtful fits. On the % scale 0 is the no-effect control and ±100 the full control effect; potency means the concentration at half of the fitted maximal effect; tags describe the fitted curve by direction and shape.",
  "data": [
    {"experiment": "qHTS Assay for Inhibitors of Hepatitis C Virus (HCV)", "settings": "Huh7.5.1 HCVcc-Cre (HCVcc is cell-culture hepatitis C virus) infection, luciferase reporter, 44 h; activity change, negative = inhibition: at 41.8 µM (top of the series)", "method_in_brief": "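Infectious HCVcc-Cre (~0.5 moi) was added to cells just after compound, with cells seeded 4 h earlier at 1,000 per well. Luciferase activity after 44 h culture reported infection; substrate was incubated 15 min at room temperature before reading.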", "values": [
      {"compound": "COc1ccc([N+](=O)[O-])cc1NC(=O)c1cn(-c2ccc(C)c(C)c2)c(=O)c2ccccc12", "Potency": "inactive"},
      {"compound": "CCOC(=O)CSc1nc(N)c(C#N)c(-c2ccc(OCC)cc2)c1C#N", "Potency": "inconclusive [inhibitor, full curve, poor fit]"},
      {"compound": "COc1ccc(-c2oc3ncnc(NCCCN(C)C)c3c2-c2ccc(OC)cc2)cc1", "Potency": "inconclusive [inhibitor, full curve]"},
      {"compound": "CN(C(=O)c1ccc(NC(=O)Cc2cccc(NC(=O)C3CCCN(S(=O)(=O)c4cccc([N+](=O)[O-])c4)C3)c2)cc1)C1CC1", "note": "(stereo not drawn)", "Potency": "inconclusive [inhibitor, partial curve]"},
      {"compound": "COc1ccccc1C(=O)OCc1c(-c2ccccc2)ncc2ccccc12", "Potency": "inconclusive [inhibitor, single point]"},
      {"compound": "Cc1nn(-c2ccccc2)c(Cl)c1/C=C(\\C#N)C(=O)NC(C)C", "Potency": "inconclusive [inhibitor, single point]"},
      {"compound": "CC(C)C(C)NC(=O)COC(=O)c1cccc(C(=O)OCC(=O)NC(C)C(C)C)n1", "note": "(stereo not drawn)", "Potency": "inactive"},
      {"compound": "CCc1nnc(NC(=O)C2(C)COC(c3ccc(OC)cc3)OC2)s1", "note": "(stereo not drawn)", "Potency": "inconclusive [inhibitor, single point]"},
      {"compound": "CC(C)(C)NC(=O)C1CC1(c1ccccc1)c1ccccc1", "note": "(stereo not drawn)", "Potency": "inconclusive [inhibitor, single point]"},
      {"compound": "O=C(N/N=C/c1cc([N+](=O)[O-])ccc1O)c1cc(-c2ccccc2)nc2ccccc12", "Potency": "inconclusive [inhibitor, single point]"},
      {"compound": "COc1ccccc1CNC(=O)CNC(=O)c1ccc(Br)o1", "Potency": "inactive"},
      {"compound": "CC1CN(c2oc(-c3cccs3)nc2C#N)CC(C)O1", "note": "(stereo not drawn)", "Potency": "inactive"},
      {"compound": "COc1cccc(-c2cc(=O)c3cc(NC(=O)c4ccc(Cl)cc4)ccc3[nH]2)c1", "activity change, negative = inhibition": "inactive: 1.02% [at 8.37 µM]"},
      {"compound": "CC1=CC(C)C2C(=O)N(c3ccccc3)C(=O)C2C1", "note": "(stereo not drawn)", "Potency": "inactive"},
      {"compound": "O=C(COc1ccc2ccc(=O)oc2c1)Nc1cccc(S(=O)(=O)N2CCCCC2)c1", "Potency": "inconclusive [inhibitor, partial curve]"},
      {"compound": "O=C(OCC(=O)N1CCC(Cc2ccccc2)CC1)c1ccc(CO)cc1", "Potency": "inconclusive [inhibitor, single point]"},
      {"compound": "COc1ccccc1NC(=S)N1CCC(NC(=O)NC23CC4CC(CC(C4)C2)C3)CC1", "Potency": "inactive"},
      {"compound": "O=C(Nc1cc(S(=O)(=O)N2CCOCC2)ccc1Cl)c1ccncc1", "Potency": "inactive"},
      {"compound": "O=C1N=C(N2CCCC2)S/C1=C\\C=C\\c1ccccc1", "Potency": "inconclusive [inhibitor, single point]"},
      {"compound": "O=C(c1cc(S(=O)(=O)N2CCOCC2)ccc1F)N(CCc1ccccc1)Cc1ccccc1", "Potency": "inconclusive [inhibitor, single point]"},
      {"compound": "O=C1c2ccccc2C2=Nc3ccccc3SC(c3ccc(Cl)cc3)C12", "note": "(stereo not drawn)", "Potency": "inconclusive [inhibitor, single point]"},
      {"compound": "Cc1cc(C(=O)N2CCN(C(c3ccccc3)c3ccccc3)CC2)no1", "Potency": "inconclusive [inhibitor, single point]"},
      {"compound": "COc1cnc(-c2ccccn2)nc1Oc1ccc(C(C)(C)C)cc1", "Potency": "active: 10 µM"},
      {"compound": "CC1CCCN(Cc2c(O)ccc3c(=O)c(-c4nc5ccccc5s4)c(N)oc23)C1", "note": "(stereo not drawn)", "Potency": "inconclusive [inhibitor, single point]"},
      {"compound": "O=c1c2c3c(sc2ncn1/N=C/c1ccc(Br)o1)CCCC3", "Potency": "inconclusive [inhibitor, partial curve]"},
      {"compound": "Cc1nnc(NC(=O)CSc2ncc(-c3ccccc3)[nH]2)s1", "Potency": "inactive"},
      {"compound": "OCc1ccc(-c2nn(Cc3ccccc3)c3ccccc23)o1", "Potency": "inconclusive [inhibitor, single point]"},
      {"compound": "Cn1c(=O)cc(OCCCC(=O)N2CCCCC2)c2ccccc21", "Potency": "inconclusive [inhibitor, partial curve]"},
      {"compound": "COc1ccc(C(C)=O)cc1COC(=O)c1ccc(S(=O)(=O)N2CCOCC2)cc1", "Potency": "inconclusive [inhibitor, partial curve]"},
      {"compound": "CCCCC(=O)Nc1ccc(NC(=O)c2ccc3c(c2)OCO3)cc1OC", "Potency": "active: 2.51 µM"},
      {"compound": "CN(C)CCCN(C(=O)c1ccco1)c1nc2ccc(F)cc2s1", "Potency": "inconclusive [inhibitor, single point]"},
      {"compound": "Cc1c(CN2CCC(C(=O)Nc3cccc(-c4cccc(Cl)c4)c3)CC2)cnn1C", "Potency": "inconclusive [inhibitor, single point]"},
      {"compound": "CC(C)c1ccc(NC(=O)c2csnn2)cc1", "Potency": "active: 14.1 µM"},
      {"compound": "CN(c1ccccc1)S(=O)(=O)c1ccc(Cl)c(C(=O)NCc2ccccc2CN2CCCC2)c1", "Potency": "inconclusive [inhibitor, partial curve]"},
      {"compound": "CCOc1ccc(N2C(=O)C3=C(C(c4ccc(Cl)cc4)=NCCN3)C2c2cccnc2)cc1", "note": "(stereo not drawn)", "Potency": "inconclusive [inhibitor, single point]"},
      {"compound": "CN1CCN(CCOc2ccc(Cl)c(Cl)c2)CC1", "Potency": "inconclusive [inhibitor, single point]"},
      {"compound": "COc1ccc(S(=O)(=O)N[C@@H](Cc2ccccc2)C(=O)N2CC[C@@]3(O)CCCC[C@H]3C2)cc1", "Potency": "inactive"},
      {"compound": "O=C(Cc1cccs1)N1CCN(c2ccc([N+](=O)[O-])cc2)CC1", "Potency": "inconclusive [inhibitor, single point]"},
      {"compound": "O=C(OCC(=O)c1c[nH]c2ccccc12)c1ccc([N+](=O)[O-])s1", "Potency": "inconclusive [inhibitor, single point]"},
      {"compound": "COc1c(C)cccc1C(=O)NC(=S)Nc1ccccc1N1CCCC1", "Potency": "inconclusive [inhibitor, partial curve]"},
      {"compound": "Cc1cc2c(c(CO)c1CCO)C(=O)[C@@H](C)[C@@H]2O", "Potency": "inactive"},
      {"compound": "CCOc1ccccc1CNC(=O)c1ccc(Sc2ccc(Cl)cc2)c(NC(C)=O)c1", "Potency": "inconclusive [inhibitor, partial curve]"},
      {"compound": "O=c1[nH]nc(SCc2nc3ccccc3s2)n1C1CC1", "Potency": "inactive"},
      {"compound": "COc1cccc(OC)c1OCCCOc1ccc(C)cc1Br", "Potency": "inconclusive [inhibitor, full curve, poor fit]"},
      {"compound": "C=CCn1c(C)c(C(C)=O)c(N2CCN(C(c3ccccc3)c3ccccc3)CC2)nc1=S", "Potency": "inconclusive [inhibitor, partial curve]"},
      {"compound": "CCOc1ccc2nc(N=NC3=C(O)CC(C)(C)CC3=O)sc2c1", "Potency": "inactive"},
      {"compound": "Clc1cncc(Cl)c1N/N=C/c1ccccc1", "Potency": "inconclusive [inhibitor, single point]"},
      {"compound": "COc1ccc(N2CCC(CNC(=S)Nc3ccc(C)cc3C)C2)cc1", "note": "(stereo not drawn)", "Potency": "inconclusive [inhibitor, partial curve]"},
      {"compound": "CC1(C)CC(NCCN2CCN(C3=CC(=C(C#N)C#N)CC(C)(C)C3)CC2)=CC(=C(C#N)C#N)C1", "Potency": "inconclusive [inhibitor, single point]"},
      {"compound": "N#CC(C(=O)NCCc1ccccc1)c1nc2ccccc2nc1N1CCCCC1", "note": "(stereo not drawn)", "Potency": "inactive"},
      {"compound": "CC1CCN(S(=O)(=O)c2ccc(Oc3ccc([N+](=O)[O-])cc3)cc2)CC1", "Potency": "inconclusive [inhibitor, full curve, poor fit]"},
      {"compound": "COC(=O)[C@H](Cc1ccc(O)cc1)NC(=O)Cn1cnc2c(NCc3ccccc3)ncnc21", "Potency": "inconclusive [inhibitor, single point]"},
      {"compound": "COc1ccc(-c2ncncc2-c2ccc(OC)c(OC)c2)c(O)c1", "Potency": "inconclusive [inhibitor, single point]"},
      {"compound": "COCCNC(=O)C(c1ccc(F)cc1)N(Cc1cccs1)C(=O)CCC(=O)Nc1ccccn1", "note": "(stereo not drawn)", "Potency": "inactive"},
      {"compound": "O=C1NC[C@H](Cc2ccccc2)N(C[C@H]2CCCN2C[C@H](Cc2ccccc2)N2C[C@H](Cc3ccccc3)N(CCc3ccccc3)C(=O)C2=O)C1=O", "Potency": "inconclusive [inhibitor, full curve, poor fit]"},
      {"compound": "CC(=O)OCCNc1nc(-c2ccccc2)nc2ccccc12", "Potency": "active: 10 µM"},
      {"compound": "COC(=O)C(NC(=O)c1cccnc1Cl)C(C)C", "note": "(stereo not drawn)", "Potency": "inactive"},
      {"compound": "COc1ccccc1C(=O)NC(=S)/C=C1/N(C)c2ccccc2C1(C)C", "Potency": "inconclusive [inhibitor, single point]"},
      {"compound": "COc1ccc(-c2nn(-c3ccccc3)cc2C(=O)N2CCOCC2)cc1", "Potency": "inconclusive [inhibitor, partial curve, poor fit]"},
      {"compound": "O=C(COc1ccc([N+](=O)[O-])cc1)Nc1ccc(CN2CCOCC2)cc1", "Potency": "inconclusive [inhibitor, partial curve]"},
      {"compound": "CC1CCN(C(=O)c2ccc3c(c2)OCCO3)CC1", "Potency": "inactive"},
      {"compound": "CCOc1ccccc1NC(=O)COC(=O)c1cnc(C)cn1", "Potency": "inactive"},
      {"compound": "O=C(CCCOc1ccc(Cl)cc1Cl)N1CCCc2ccccc21", "Potency": "inconclusive [inhibitor, partial curve]"},
      {"compound": "C=CC[C@H](CC(=O)N(CCO)Cc1ccccc1)C(=O)NCCOC(=O)[C@H](CC=C)CC(=O)OC(C)(C)C", "Potency": "inconclusive [inhibitor, partial curve]"},
      {"compound": "O=C(CN1C(=O)/C(=C\\c2cccc(Br)c2)Oc2ccccc21)NCCCN1CCOCC1", "Potency": "active: 6.31 µM"},
      {"compound": "CNS(=O)(=O)c1cccc(C(=O)OCc2cc(Cl)cc3c2OCOC3)c1", "Potency": "inconclusive [inhibitor, partial curve]"},
      {"compound": "O=C(NNc1ccccc1)Nc1ccccc1F", "Potency": "inconclusive [inhibitor, single point]"},
      {"compound": "CCCn1nc2cc(C(=O)NCc3ccc(OC(F)(F)F)cc3)ccc2c1OCC", "Potency": "inconclusive [inhibitor, partial curve]"}
    ]}
  ]
}
